What was measured:
[1] = biological target: T1, CDK7/cyclin H/MNAT1 (Homo sapiens, UniProt P50613); assay: Invitrogen/Life Technologies biochemical kinase inhibition assay; conditions: ATP concentration = Km, duplicate; read-out: IC50 (nM) CDK7/cyclin H/MNAT1
T1 construct: purchased Life Technologies (Invitrogen)
Description: (§1) Select compounds described herein were evaluated for structure-activity analyses. Exemplary results of the IC50 values of exemplary compound BSJ-01-175-1 on other CDK kinases from an Invitrogen biochemical assay are shown in Table 1. In vitro kinase assays were performed by Life Technologies in duplicate at an ATP concentration=Km for each kinase. The IC50 on Jurkat cell is from an anti-proliferaction assay; IC50 on CDK2, CDK7 and CDK9 is from a biochemical kinase inhibition assay from Life technology.

[2] = biological target: T2, CDK2/cyclin A (Homo sapiens, UniProt P24941); assay: as above; conditions: ATP concentration = Km, duplicate; read-out: IC50 (nM) CDK2/Cyclin A
T2 construct: purchased Life Technologies (Invitrogen)
Description: as §1

[3] = biological target: T3, CDK9/cyclin T1 (Homo sapiens, UniProt P50750); assay: as above; conditions: ATP concentration = Km, duplicate; read-out: IC50 (nM) CDK9/Cyclin T1
T3 construct: purchased Life Technologies (Invitrogen)
T3 sequence (P50750 whole entry): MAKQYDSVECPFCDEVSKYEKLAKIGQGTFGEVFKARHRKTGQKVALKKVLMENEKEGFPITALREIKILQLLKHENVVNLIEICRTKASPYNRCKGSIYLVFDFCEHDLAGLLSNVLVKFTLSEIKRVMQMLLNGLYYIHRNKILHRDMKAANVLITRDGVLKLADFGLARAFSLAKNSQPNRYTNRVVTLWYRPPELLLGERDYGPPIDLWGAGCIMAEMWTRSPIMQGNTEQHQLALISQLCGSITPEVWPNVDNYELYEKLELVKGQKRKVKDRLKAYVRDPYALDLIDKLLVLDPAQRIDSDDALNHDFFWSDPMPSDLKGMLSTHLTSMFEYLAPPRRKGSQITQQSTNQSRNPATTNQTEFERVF
T3 sequence (O60563 whole entry partner): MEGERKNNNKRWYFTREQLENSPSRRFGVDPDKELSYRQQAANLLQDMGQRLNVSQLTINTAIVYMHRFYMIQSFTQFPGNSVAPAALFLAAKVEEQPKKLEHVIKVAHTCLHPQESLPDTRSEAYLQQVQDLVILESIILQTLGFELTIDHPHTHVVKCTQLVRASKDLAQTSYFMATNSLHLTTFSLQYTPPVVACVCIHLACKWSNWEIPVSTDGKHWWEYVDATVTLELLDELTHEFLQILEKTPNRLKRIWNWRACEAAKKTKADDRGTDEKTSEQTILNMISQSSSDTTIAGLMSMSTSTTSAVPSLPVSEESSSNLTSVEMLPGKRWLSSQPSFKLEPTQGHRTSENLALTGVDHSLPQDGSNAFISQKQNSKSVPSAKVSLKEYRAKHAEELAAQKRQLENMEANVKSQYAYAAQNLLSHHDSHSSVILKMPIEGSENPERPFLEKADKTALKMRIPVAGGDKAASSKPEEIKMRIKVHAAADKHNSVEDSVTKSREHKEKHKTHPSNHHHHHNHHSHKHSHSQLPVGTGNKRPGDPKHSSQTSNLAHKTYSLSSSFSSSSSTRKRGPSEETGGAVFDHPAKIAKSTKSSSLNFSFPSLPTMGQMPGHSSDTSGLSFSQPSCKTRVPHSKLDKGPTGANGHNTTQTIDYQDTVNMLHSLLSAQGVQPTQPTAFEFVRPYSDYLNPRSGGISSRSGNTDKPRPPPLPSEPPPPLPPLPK
Description: as §1

[4] = test system: Jurkat cells; assay: Anti-proliferation activity on Jurkat cells ([…] GLO); assay type: cell-based; conditions: Homo sapiens, 72 hours, read-out: IC50 (nM) Jurkat Cell
Description: as §1
Assay of Anti-Proliferation Activity on Jurkat Cells
Jurkat cells were plated at 30,000 cells/well and treated with a titration of compounds indicated. Cells were allowed to grow for 72 hours. Cells were assayed using […] GLO (Promega) to determine cell viability by measuring the amount of ATP present, which is an indicator of cell metabolic activity. Results are graphedcalculated as relative as luminescence as compared to DMSOP=.cent values. Curves were generated using PRISM and an IC50 value was determined.

T1 sequence (P50613 whole entry): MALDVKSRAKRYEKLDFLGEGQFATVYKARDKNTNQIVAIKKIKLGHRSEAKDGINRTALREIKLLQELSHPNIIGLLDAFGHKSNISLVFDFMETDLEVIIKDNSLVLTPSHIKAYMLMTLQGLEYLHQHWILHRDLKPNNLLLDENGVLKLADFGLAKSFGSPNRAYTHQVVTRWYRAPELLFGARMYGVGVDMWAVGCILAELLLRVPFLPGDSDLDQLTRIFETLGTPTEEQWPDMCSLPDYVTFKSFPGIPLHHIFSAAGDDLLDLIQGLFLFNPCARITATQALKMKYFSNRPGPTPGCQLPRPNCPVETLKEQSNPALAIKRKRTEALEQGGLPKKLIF
T1 sequence (P51946 whole entry partner): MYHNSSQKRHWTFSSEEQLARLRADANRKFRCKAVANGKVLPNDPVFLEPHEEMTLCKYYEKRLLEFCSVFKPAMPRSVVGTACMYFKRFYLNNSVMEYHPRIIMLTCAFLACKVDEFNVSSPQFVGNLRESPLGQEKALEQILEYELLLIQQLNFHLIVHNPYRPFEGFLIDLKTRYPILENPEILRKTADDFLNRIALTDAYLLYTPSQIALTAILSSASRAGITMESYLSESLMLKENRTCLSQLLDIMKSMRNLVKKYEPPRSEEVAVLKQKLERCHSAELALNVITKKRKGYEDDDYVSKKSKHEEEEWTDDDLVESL
T1 sequence (P51948 whole entry partner): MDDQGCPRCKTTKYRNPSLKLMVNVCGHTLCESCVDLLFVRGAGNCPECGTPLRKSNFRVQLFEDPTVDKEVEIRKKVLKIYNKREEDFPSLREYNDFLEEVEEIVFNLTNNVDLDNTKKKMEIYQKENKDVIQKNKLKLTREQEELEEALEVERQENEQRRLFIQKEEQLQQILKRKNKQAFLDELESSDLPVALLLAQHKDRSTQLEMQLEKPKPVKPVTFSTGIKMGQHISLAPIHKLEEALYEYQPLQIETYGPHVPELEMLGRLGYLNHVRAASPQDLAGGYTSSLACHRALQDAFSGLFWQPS

Row | SMILES | IC50 [1] | IC50 [2] | IC50 [3] | IC50 [4]
1 | CN(C)C/C=C/C(=O)Nc1ccc(C(=O)N2CCC[C@@H](Nc3ncc(Br)c(-c4c[nH]c5ccccc45)n3)C2)nc1 [BSJ-02-058, (E)-N-(6-(3-(5-bromo-4-(1H-indol-3-yl)pyrimidin-2-ylamino)piperidine-1-carbonyl)pyridin-3-yl)-4-(dimethylamino)but-2-enamide] | 251 nM | 3740 nM | 734 nM | 
2 | CN(C)C/C=C/C(=O)Nc1ccc(N2CCC[C@@H](Nc3ncc(Cl)c(-c4c[nH]c5ccccc45)n3)C2)nc1 [BSJ-02-108, (R,E)-N-(6-(3-((5-chloro-4-(1H-indol-3-yl)pyrimidin-2-yl)amino)piperidin-1-yl)pyridin-3-yl)-4-(dimethylamino)but-2-enamide] | 74 nM | 492 nM | 87.7 nM | 
3 | C=CC(=O)Nc1ccc(N2CCC[C@@H](Nc3ncc(Cl)c(-c4c[nH]c5ccccc45)n3)C2)nc1 [BSJ-02-109, (R)—N-(6-(3-((5-chloro-4-(1H-indol-3-yl)pyrimidin-2-yl)amino)piperidin-1-yl)pyridin-3-yl)acrylamide] | 433 nM | 1940 nM | 121 nM | 11.2 nM
4 | CN(C)C/C=C/C(=O)Nc1ccc(C(=O)N2CCC[C@@H](Nc3ncc(Cl)c(-c4c[nH]c5ccccc45)n3)C2)nc1 [BSJ-01-202, (E)-N-(6-(3-(5-chloro-4-(1H-indol-3-yl)pyrimidin-2-ylamino)piperidine-1-carbonyl)pyridin-3-yl)-4-(dimethylamino)but-2-enamide] |  | 3870 nM | 658 nM | 54.3 nM
5 | C=CC(=O)Nc1ccc(C(=O)N2CCCC(Nc3ncc(Br)c(-c4c[nH]c5ccccc45)n3)C2)nc1 (stereo not shown) [BSJ-02-057, N-(6-(3-(5-bromo-4-(1H-indol-3-yl)pyrimidin-2-ylamino)piperidine-1-carbonyl)pyridin-3-yl)acrylamide] | 272 nM | 2040 nM | 505 nM | 
